Test [1] addresses T1, human IL-2Rα receptor protein (Sino Biological, 10165-H08H) (human, UniProt P01589 22-213).
T1 construct: SPR analyte; also called CD25
T1 sequence (looked up): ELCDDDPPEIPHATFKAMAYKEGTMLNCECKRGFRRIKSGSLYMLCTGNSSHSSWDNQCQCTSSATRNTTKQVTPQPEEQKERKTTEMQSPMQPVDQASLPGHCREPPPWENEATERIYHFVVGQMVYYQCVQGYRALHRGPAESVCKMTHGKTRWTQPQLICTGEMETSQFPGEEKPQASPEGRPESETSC
The test is described as follows: SPR (Biacore 8K), fusion protein captured by anti-human IgG (Fc), IL-2Rα as analyte. (In general: Surface plasmon resonance follows binding to a sensor surface in real time, without labels.)

The target of test [2] is T2, human IL-2Rβ/γ receptor heterodimer protein (Acrosystem, ILG-H5283) (human, UniProt P14784 27-239; P31785 23-262, limits assumed).
T2 construct: SPR analyte
T2 sequence (looked up) 1: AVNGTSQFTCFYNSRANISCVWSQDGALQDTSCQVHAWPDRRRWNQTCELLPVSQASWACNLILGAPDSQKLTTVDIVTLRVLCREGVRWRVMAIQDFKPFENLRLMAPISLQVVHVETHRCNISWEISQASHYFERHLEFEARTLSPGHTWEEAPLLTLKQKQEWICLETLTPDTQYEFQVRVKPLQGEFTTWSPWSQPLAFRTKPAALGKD
T2 sequence (looked up) 2: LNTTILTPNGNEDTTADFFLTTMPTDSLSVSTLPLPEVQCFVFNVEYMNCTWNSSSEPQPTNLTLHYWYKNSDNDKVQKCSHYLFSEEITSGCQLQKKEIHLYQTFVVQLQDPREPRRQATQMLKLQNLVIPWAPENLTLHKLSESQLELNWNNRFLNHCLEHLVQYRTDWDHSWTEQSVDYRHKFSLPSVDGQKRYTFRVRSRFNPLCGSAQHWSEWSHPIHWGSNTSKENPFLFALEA
The test is described as follows: SPR (Biacore 8K), fusion protein captured by anti-human IgG (Fc), IL-2Rβ/γ heterodimer as analyte.

Test [3] concerns the target T3, Human PD-1 antigen protein (Sino Biological, 10377-H08H) (human, UniProt Q15116 fragment).
T3 construct: also called human antigen protein
T3 sequence (Q15116 25-167 limits assumed): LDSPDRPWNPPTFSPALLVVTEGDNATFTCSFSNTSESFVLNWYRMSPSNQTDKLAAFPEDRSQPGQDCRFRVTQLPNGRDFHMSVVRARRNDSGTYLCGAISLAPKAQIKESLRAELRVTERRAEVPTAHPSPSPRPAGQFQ
The test is described as follows: SPR (Biacore 8K), fusion protein captured by anti-human IgG (Fc), PD-1 as analyte.

Test [4] addresses T2, human IL-2Rβ/γ receptor heterodimer …. The test is described as follows: SPR (Biacore 8K), fusion protein captured by anti-human IgG (Fc), IL-2Rβ/γ heterodimer as analyte. The source holds these as a separate data set.

B1: A-N88D (Fc fusion)
chain 1: EVQLVESGGGLVQPGGSLRLSCAASGLTFSDYSMSWYRQAPGKGRELVAIISGSGVITHYVDSVKGRFTISRDNAKNTLYLQMRSLRAEDTAVYYCRAVSDWEDYWGQGTQVTVSS[human IgG1 Fc with changes not written out]GGGGSGGGGSGGGGSAPASSSTKKTQLQLEHLLLDLQMILQGISNYKNPKLTRMLTAKFYMPKKATELKHLQCLEEELKPLEEVLQGAQSKNFHLRPRDLISDINVIVLELKGSETTFMCEYADETATIVEFLNRWITFAQSIISTLT
chain 2: EVQLVESGGGLVQPGGSLRLSCAASGLTFSDYSMSWYRQAPGKGRELVAIISGSGVITHYVDSVKGRFTISRDNAKNTLYLQMRSLRAEDTAVYYCRAVSDWEDYWGQGTQVTVSSEPKSSDKTHTCPPCPAPEAAGGPSVFLFPPKPKDTLMISRTPEVTCVVVDVSHEDPEVKFNWYVDGVEVHNAKTKPREEQYNSTYRVVSVLTVLHQDWLNGKEYKCKVSNKALPAPIEKTISKAKGQPREPQVCTLPPSREEMTKNQVSLSCAVKGFYPSDIAVEWESNGQPENNYKTTPPVLDSDGSFFLVSKLTVDKSRWQQGNVFSCSVMHEALHNHYTQKSLSLSPG
notes: also called PD-1-IL-2v (N88D); PD-1-IL2v
Regarding B1, the binding result in test [1] is reported as “no binding”. Besides, the “fold lower avidity than A-PC” value in test [2] is roughly 13 times. Also, in test [3], the Kd is 17.6 nM, the koff worked out at 0.00175 s⁻¹ and the kon is 99800 M⁻¹ s⁻¹. In test [4], this molecule came in with a Kd of 3.38 nM, a koff of 0.000215 s⁻¹ and a kon of 63700 M⁻¹ s⁻¹.

For orientation: Kd means the free concentration of one partner at which half of the binding sites on the other are occupied at equilibrium, for simple one-to-one binding. Higher therefore signals lower affinity. Broadly, the koff is a measure of how fast the partners let go of each other. Low values mean a long-lived complex, high ones a short-lived complex. Broadly, the kon is the second-order rate constant of association. Read a high kon as fast association.

The values are drawn from patent EP4763867A1 (Shanghai Mabgen Biotech Ltd., dated 2026).
